The text below walks through data of PMC3004914, “Classification of Drugs Based on Properties of Sodium Channel Inhibition: A Comparative Automated Patch-Clamp Study” (PLoS ONE, 2010).

The target of test [1] is T1, rNav1.2 sodium channels (HEK-293 cells) (Rattus norvegicus, UniProt P04775). Description: steady-state inactivation protocol (availability curves), QPatch automated patch-clamp. Format: cell-based. An excerpt: (§1) A)–D) Peak amplitudes of evoked currents (5 Hz trains of 5 depolarizations from −90 to −10 mV) are plotted against time. Black dots: Control. Grey dots: Drug perfusion. […] Calculation of properties of inhibition is illustrated. […] E) Calculation of Kr and Ki values from steady-state availability curves.
Standard steady-state inactivation protocols were used to measure the shift of steady-state availability curve caused by the drugs. Currents were evoked by a 10 ms test pulse to −10 mV, preceded by 400 ms pre-pulses from −150 to −30 mV. […] Because the inhibition at hyperpolarized potentials (Inh−150), and the shift of the availability curves (ΔV1/2) are both concentration-dependent properties, we calculated affinities to hyperpolarized and depolarized states (“resting state affinity”: Kr, and “inactivated state affinity”: Ki), which, on the other hand, are concentration-independent characteristics of individual drugs. Calculation of Kr and Ki values are described in Materials and Methods, and illustrated in Figure 1E. State-dependence (SD) was quantified as the ratio Kr/Ki.
(§2) HEK-293 cells stably expressing rNav1.2 sodium channels were obtained from NeuroSearch (Ballerup, Denmark).
(§3) Cells were automatically prepared for application to the chips (centrifuged and washed twice, then resuspended in extracellular solution) as described previously. Composition of the extracellular solution was: (in mM): 140 NaCl, 3 KCl, 1 CaCl2, 1 MgCl2, 0.1 CdCl2, 20 TEA-Cl, 5 HEPES, adjusted to pH 7.3, Osmolality: ∼320 mOsm.
All electrophysiological experiments were conducted on Qpatch-16 or QPatch HT instruments using QPlate™ chips. For a detailed description of the instrument and the patch-clamp chips see [37], [38]. Data were sampled at a frequency of 25 kHz and filtered at 5 kHz. […] The amplifier was controlled and the data were collected by the Sophion QPatch client software. For initial data analysis the QPatch software was used. Built-in amplifiers provide an improved method for series resistance compensation. Leak subtraction (based on a standard P/n protocol) was used to subtract the capacitive component of currents.
Inactivated affinity (Ki) values were calculated assuming a simple four-state model of drug binding and channel gating, using two separate methods: (1) from the shift of the availability curve (ΔV1/2), the slope of the Boltzmann fit of the availability curve (k) and Kr, using the formula described by Bean, Cohen and Tsien (Ki−ΔV1/2; see Figure 1E), or (2) from the apparent affinity (Kapp) at a certain pre-pulse potential, which was calculated from the inhibition (e.g. Inh−60) as described above, and the availability (h) at the same pre-pulse potential, using the formula from Kuo and Bean (Figure 1E). […] (Arithmetic means and SEM values are given in Results S7.)

In test [2] the target is T1, rNav1.2 sodium channels (HEK-293 cells). Nature of the test: 5 Hz train protocol, QPatch automated patch-clamp. Format: cell-based.
Description: The dynamics of the onset and offset of inhibition was monitored using 5 Hz trains of five depolarizing pulses from a holding potential of −90 mV to −10 mV. The trains were repeated every 20 s. Drugs were applied after 10 control trains and 10 trains were delivered in the presence of the drug. The drug was then washed out, and the 10 trains were repeated.
We measured inhibition (Inh; from which we calculated IC50 values as described in Materials and Methods), reversibility of inhibition (Rev) and use-dependence (UD), as well as time constant of onset (τon) and offset (τoff). The calculation of IC50, quantification of Rev and UD, and the determination of time constants are illustrated in Figure 1A. Because τon should be concentration-dependent if we assume a single binding reaction, we excluded it from the analyses. […] Comments on the interpretation of these properties (Rev, […] and UD) are in Results S1.
as §1, §2, §3
All electrophysiological experiments were conducted on Qpatch-16 or QPatch HT instruments using QPlate™ chips. For a detailed description of the instrument and the patch-clamp chips see [37], [38]. Data were sampled at a frequency of 25 kHz and filtered at 5 kHz. […]
From this protocol we extracted five parameters, as illustrated in Figure 1A. We calculated inhibition of a single “cc” concentration: Inh = (amplitudectr – amplitudedrug)/amplitudectr.

For the next test, the target named is sodium channels. The settings on record: cited from earlier work; for Ki: read-out: Ki−Lit; for Kd: read-out: Kr−Lit.
[3] abbreviates: arithmetic mean, 30 µM, read-out: Ki-Kapp arith.
Where [4] appears, read: arithmetic mean, 30 µM, read-out: Ki-ΔV1/2 arith.
The mark [5] stands for this setting: arithmetic mean, 30 µM, read-out: Kr arith.
Where [6] appears, read: geometric mean, from Inh at −150 mV, 30 µM, read-out: Kr (resting state affinity).
[7] abbreviates: geometric mean, from apparent affinity, 30 µM, read-out: Ki−Kapp (inactivated state affinity).
Where [8] appears, read: geometric mean, from shift of availability curve, 30 µM, read-out: Ki−ΔV1/2 (inactivated state affinity).

Structures are written as SMILES. Like-named read-outs stand apart in the source and are kept apart here.

T1 sequence (P04775 whole entry, the tested form may be a part): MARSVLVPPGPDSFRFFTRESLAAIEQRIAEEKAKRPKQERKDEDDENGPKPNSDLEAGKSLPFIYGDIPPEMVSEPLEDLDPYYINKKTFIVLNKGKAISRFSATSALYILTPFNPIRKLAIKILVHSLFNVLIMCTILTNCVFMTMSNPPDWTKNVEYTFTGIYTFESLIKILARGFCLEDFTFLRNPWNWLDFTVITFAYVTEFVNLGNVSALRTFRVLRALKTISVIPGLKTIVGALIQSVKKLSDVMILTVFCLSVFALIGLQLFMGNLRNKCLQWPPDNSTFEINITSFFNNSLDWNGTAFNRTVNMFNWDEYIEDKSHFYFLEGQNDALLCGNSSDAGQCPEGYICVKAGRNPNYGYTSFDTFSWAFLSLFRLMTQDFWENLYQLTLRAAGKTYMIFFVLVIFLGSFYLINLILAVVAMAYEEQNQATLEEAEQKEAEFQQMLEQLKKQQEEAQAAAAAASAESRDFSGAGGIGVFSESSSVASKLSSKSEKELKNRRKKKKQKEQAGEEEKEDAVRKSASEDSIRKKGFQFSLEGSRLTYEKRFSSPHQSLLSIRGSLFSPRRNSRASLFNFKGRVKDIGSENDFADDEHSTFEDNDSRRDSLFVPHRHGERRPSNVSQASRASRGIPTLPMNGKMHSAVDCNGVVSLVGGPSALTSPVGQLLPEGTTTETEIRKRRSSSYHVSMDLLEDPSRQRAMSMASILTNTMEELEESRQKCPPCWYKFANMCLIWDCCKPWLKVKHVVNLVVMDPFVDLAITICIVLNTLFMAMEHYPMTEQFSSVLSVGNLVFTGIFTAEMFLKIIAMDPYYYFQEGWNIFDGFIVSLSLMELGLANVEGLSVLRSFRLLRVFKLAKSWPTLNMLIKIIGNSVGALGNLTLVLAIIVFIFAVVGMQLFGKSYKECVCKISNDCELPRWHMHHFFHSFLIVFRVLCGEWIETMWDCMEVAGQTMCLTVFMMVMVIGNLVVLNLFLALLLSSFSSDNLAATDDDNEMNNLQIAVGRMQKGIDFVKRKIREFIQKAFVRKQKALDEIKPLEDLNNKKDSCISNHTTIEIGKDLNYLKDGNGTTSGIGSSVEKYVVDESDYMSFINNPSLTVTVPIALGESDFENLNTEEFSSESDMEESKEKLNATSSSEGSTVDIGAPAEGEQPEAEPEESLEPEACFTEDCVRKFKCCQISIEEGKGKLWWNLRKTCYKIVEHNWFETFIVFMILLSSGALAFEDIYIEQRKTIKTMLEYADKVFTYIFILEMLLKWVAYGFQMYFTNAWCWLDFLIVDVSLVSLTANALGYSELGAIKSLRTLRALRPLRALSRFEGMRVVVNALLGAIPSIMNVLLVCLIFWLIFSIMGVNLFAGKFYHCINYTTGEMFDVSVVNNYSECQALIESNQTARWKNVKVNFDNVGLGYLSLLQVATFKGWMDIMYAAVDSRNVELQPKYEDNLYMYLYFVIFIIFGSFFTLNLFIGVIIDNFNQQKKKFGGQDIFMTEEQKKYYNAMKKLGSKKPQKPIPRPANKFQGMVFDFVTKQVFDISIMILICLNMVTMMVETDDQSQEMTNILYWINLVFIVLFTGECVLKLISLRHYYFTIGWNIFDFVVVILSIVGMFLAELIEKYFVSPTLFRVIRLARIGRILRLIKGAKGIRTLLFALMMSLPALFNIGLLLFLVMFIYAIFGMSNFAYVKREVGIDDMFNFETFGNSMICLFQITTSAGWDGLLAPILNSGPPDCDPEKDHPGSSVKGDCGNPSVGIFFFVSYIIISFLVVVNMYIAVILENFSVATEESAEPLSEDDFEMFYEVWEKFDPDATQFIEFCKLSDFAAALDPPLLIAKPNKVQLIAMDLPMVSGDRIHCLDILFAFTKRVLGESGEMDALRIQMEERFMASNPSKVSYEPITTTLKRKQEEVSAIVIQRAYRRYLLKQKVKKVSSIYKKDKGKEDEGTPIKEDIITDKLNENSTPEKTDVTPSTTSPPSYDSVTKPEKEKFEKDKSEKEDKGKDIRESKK

As for `CN1CCN(C2=Nc3cc(Cl)ccc3Nc3ccccc32)CC1` [CLZ, Clozapine], the Ki in test [1] (arithmetic mean, 100 µM, read-out: Ki-Kapp arith) was 14.1 µM; in test [1] (arithmetic mean, 100 µM, read-out: Ki-ΔV1/2 arith), 13.3 µM; in test [1] (geometric mean, from apparent affinity, 100 µM, read-out: Ki−Kapp (inactivated state affinity)), 12.4 µM; in test [1] (geometric mean, from shift of availability curve, 100 µM, read-out: Ki−ΔV1/2 (inactivated state affinity)), 11 µM. Further, the Kd came to 255 µM in test [1] (arithmetic mean, 100 µM, read-out: Kr arith) and 249 µM in test [1] (geometric mean, from Inh at −150 mV, 100 µM, read-out: Kr (resting state affinity)). Also, the potency estimated from few doses in test [2] (HEK293, calculated from Inh at single concentration 100 μM, −90 mV, read-out: IC50) is 94.5 µM.
Consider `Fc1ccc(C(c2ccc(F)cc2)N2CCN(C/C=C/c3ccccc3)CC2)cc1` [FLR, Flunarizine], for which the Ki at sodium channels (literature) was less than 0.2 µM.
With `CNCCC(Oc1ccc(C(F)(F)F)cc1)c1ccccc1` (centres unmarked) [FLX, Fluoxetine], on sodium channels (averaged literature data), the Ki is 1.2 µM and the Kd was 89.4 µM.
With `O=C(CCCN1CCC(O)(c2ccc(Cl)cc2)CC1)c1ccc(F)cc1` [HAL, Haloperidol], the Ki was 0.28 µM at sodium channels (averaged literature data); 3.27 µM in test [1] (setting [3]); 16.6 µM in test [1] (setting [4]); 2.96 µM in test [1] (setting [7]); 13.8 µM in test [1] (setting [8]). The Kd on sodium channels (averaged literature data) is 7 µM; in test [1] (setting [5]) it was 128 µM; in test [1] (setting [6]), 113 µM. For the same compound, in test [2] (HEK293, calculated from Inh at single concentration 30 μM, −90 mV, read-out: IC50), the potency estimated from few doses was 20.4 µM.
Consider `CN1CCN2c3ccccc3Cc3ccccc3C2C1` (centres unmarked) [MIA, Mianserin], for which, on sodium channels (averaged literature data), the Ki is 1.3 µM and the Kd is 190 µM.
As for `CNCCCC12CCC(c3ccccc31)c1ccccc12` [MPR, Maprotiline], at sodium channels (averaged literature data), the Ki is 1.45 µM and the Kd is 18.3 µM.
As for `CN[C@H]1CC[C@@H](c2ccc(Cl)c(Cl)c2)c2ccccc21` [SRT, Sertraline], the Ki in test [1] (setting [3]) amounted to 2.43 µM; in test [1] (setting [4]), 1.59 µM; in test [1] (setting [7]), 2.1 µM; in test [1] (setting [8]), 1.47 µM. Further, the Kd in test [1] (setting [5]) is 57.4 µM; in test [1] (setting [6]) it was 56.4 µM. Besides, the potency estimated from few doses in test [2] (HEK293, read-out: IC50, calculated from Inh at single concentration 30 μM, −90 mV) is 14.3 µM.
Regarding `O=c1n(CCCN2CCN(c3cccc(Cl)c3)CC2)nc2ccccn12` [TRZ, Trazodone], at sodium channels (literature), the Ki was roughly 111 µM and the Kd is roughly 1000 µM.
